Source: PubChem BioAssay AID504332 (National Center for Advancing Translational Sciences (NCATS), 2011)
Out of some 350,000 compounds screened, about 31,000 (8.9%) were called active. This list was built around the results that the source calls inconclusive (neither active nor inactive); the mix of calls is not that of the screen. Calls follow the shape of the dose curve; as a rule, active = well fitted inhibition curve with a large enough effect; inconclusive = small, poorly fitted or top-dose-only effect; inactive = no such curve, though single readings can be large or run the other way. Where the call is inconclusive, the potency comes from a doubtful curve fit.

Each compound was assayed against Histone-lysine N-methyltransferase EHMT2 (Homo sapiens) (UniProt Q96KQ7) (assay: qHTS Assay for Inhibitors of Histone Lysine Methyltransferase G9a). Conditions: G9a H3K9 monomethylation, AlphaScreen, 2 h; activity, negative = inhibition: at 59 µM (top of the series) unless noted.
UniProt Q96KQ7, sequence (Q96KQ7 whole entry, looked up): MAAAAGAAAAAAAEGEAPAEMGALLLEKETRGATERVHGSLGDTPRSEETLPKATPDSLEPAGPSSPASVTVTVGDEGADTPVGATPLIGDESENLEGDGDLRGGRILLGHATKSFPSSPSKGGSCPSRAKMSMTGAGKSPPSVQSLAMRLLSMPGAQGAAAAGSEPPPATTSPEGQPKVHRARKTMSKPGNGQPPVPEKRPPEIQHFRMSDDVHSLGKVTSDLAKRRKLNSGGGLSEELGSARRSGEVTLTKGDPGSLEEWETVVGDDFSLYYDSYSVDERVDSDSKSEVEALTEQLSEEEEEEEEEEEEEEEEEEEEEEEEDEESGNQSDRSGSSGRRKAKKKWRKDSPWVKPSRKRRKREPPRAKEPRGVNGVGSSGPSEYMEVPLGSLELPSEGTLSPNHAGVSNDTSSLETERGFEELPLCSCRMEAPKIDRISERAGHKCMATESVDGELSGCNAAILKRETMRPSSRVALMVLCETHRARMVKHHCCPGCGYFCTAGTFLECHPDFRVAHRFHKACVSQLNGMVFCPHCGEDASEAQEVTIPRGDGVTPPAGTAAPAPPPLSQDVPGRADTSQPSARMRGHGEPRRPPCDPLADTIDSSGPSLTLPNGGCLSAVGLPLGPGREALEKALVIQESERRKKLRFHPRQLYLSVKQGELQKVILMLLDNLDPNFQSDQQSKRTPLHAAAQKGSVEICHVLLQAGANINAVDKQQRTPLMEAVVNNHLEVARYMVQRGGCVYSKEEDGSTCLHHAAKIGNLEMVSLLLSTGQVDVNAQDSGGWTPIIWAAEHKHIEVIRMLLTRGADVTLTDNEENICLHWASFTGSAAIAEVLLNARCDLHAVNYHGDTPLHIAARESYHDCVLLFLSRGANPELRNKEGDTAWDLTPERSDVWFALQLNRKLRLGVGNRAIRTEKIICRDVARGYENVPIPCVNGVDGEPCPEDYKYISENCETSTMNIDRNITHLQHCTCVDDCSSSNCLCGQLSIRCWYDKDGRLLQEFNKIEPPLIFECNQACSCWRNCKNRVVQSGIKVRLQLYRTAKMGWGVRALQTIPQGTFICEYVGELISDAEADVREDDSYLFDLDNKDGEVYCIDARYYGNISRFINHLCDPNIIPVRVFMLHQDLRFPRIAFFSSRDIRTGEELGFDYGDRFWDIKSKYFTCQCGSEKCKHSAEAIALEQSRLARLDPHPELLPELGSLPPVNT
Procedure, shortened: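 Methyltransferase reactions run at room temperature for 2 h (20 nM enzyme, 500 nM biotin-H3K9 peptide, 20 uM SAM) after a 15 min compound preincubation; product detected by AlphaScreen beads and anti-H3K9me1 antibody.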
% is scaled to controls: 0 for no effect and ±100 for the full control effect; potency is read from the fitted curve at half-maximal effect; tags tell the direction and shape of the fitted curve.
Also: nearly all actives have a fitted effect of over 75% in size.

Row | Compound | Potency | activity, negative = inhibition
1 | CC(=O)N1CCc2cc(Br)cc(S(=O)(=O)NCc3ccccn3)c21 | inconclusive: 39.8 µM [inhibitor, partial curve, poor fit] | –
2 | Cc1oc(-c2ccccc2F)nc1CS(=O)CC(=O)NCc1ccccc1 (configuration not stated) | inactive | –
3 | Cc1cccc(NC(=O)C2CC(=O)OC23CCCC3)c1 (configuration not stated) | inconclusive: 39.8 µM [inhibitor, single point] | –
4 | O=c1[nH]c2cc3c(cc2cc1CN(CCc1ccccc1)Cc1nnnn1CC1CCCO1)OCO3 (configuration not stated) | inconclusive: 31.6 µM [inhibitor, single point] | –
5 | CN1C(=O)N(CC(=O)N2CCN(c3ccccc3F)CC2)C(=O)C12CCCCC2 | – | inactive: -12.6% [at 12.7 µM]
6 | COc1cc(/C=C2/C(=O)NN(c3ccc(C)c(Cl)c3)C2=O)cc([N+](=O)[O-])c1O | active: 11.2 µM | –
7 | Cc1cccc(N2CCN(C(=O)c3ccc4nc[nH]c4c3)CC2)c1C | inconclusive: 100 µM [inhibitor, single point] | –
8 | CC1CCC(=NNC(=O)Cc2cccn2C)CC1 (configuration not stated) | inconclusive: 50.1 µM [inhibitor, partial curve, poor fit] | –
9 | CC1CCc2c(sc(NC(=O)c3ccco3)c2C(=O)O)C1 (configuration not stated) | – | inactive: -1.08% [at 12.7 µM]
10 | Cc1c(N=C2SCC(=O)N2/N=C/c2ccccc2Cl)c(=O)n(-c2ccccc2)n1C | inconclusive: 89.1 µM [inhibitor, single point] | –
11 | c1ccc(N2CCN(c3ncnc4[nH]ncc34)CC2)cc1 | inactive | –
12 | O=C(N/N=C/c1cc2cc3c(cc2nc1Cl)OCO3)c1ccncc1 | inconclusive: 44.7 µM [inhibitor, partial curve, poor fit] | –
13 | O=[N+]([O-])c1ccccc1N/N=C1\CCc2ccccc21 | inconclusive: 79.4 µM [inhibitor, partial curve, poor fit] | –
14 | CCCOc1ccccc1OCC(=O)Nc1cccc(S(=O)(=O)NC2=NCCC2)c1 | inactive | –
15 | Cc1csc(=Nc2ccccc2)n1Cc1ccco1 | active: 39.8 µM | –
16 | Nc1nnc(CCCCCc2nnc(N)s2)s1 | inconclusive: 25.1 µM [inhibitor, partial curve, poor fit] | –
17 | CCc1ccc(NCc2cc3ccc(OC)cc3n(CC(=O)Nc3cccc(Cl)c3C)c2=O)cc1 | inactive | –
18 | O=C1CCc2cc(S(=O)(=O)N3CCCCC3)cc3c2N1CC3 | inconclusive: 63.1 µM [inhibitor, partial curve, poor fit] | –
19 | CCOc1ccc(NC(=O)C2CCCN(c3nnc(-n4c(C)ccc4C)s3)C2)cc1 (configuration not stated) | inactive | –
20 | COCCn1cnnc1SCC(=O)Nc1cccc(S(=O)(=O)N(C)c2ccccc2)c1 | inconclusive: 50.1 µM [inhibitor, partial curve, poor fit] | –
21 | COc1ccc(Nc2nc(C)cc(=O)[nH]2)c(OC)c1 | inconclusive: 25.1 µM [inhibitor, partial curve, poor fit] | –

Row | Compound | Potency | activity, negative = inhibition
22 | COc1ccc(F)cc1S(=O)(=O)N1CCC2(CC1)OCCN2S(=O)(=O)c1cccs1 | – | inactive: 4.36% [at 0.501 µM]
23 | CN(C)CCCn1c2c(c(SCC(=O)Nc3ccc4c(c3)OCCO4)nc1=O)CCC2 | inconclusive: 89.1 µM [inhibitor, single point] | –
24 | COc1cccc(C(=O)N2CCN(Cc3cn[nH]c3-c3ccc(F)cc3F)CC2)c1 | inconclusive: 89.1 µM [inhibitor, partial curve, poor fit] | –
25 | Cc1nn(Cc2ccccc2)c(Cl)c1C(=O)OC1CCOC1=O (configuration not stated) | inconclusive: 31.6 µM [inhibitor, single point] | –
26 | c1ccc(CSc2nnc3c4ccccc4c4ccccc4c3n2)cc1 | inconclusive: 89.1 µM [inhibitor, single point] | –
27 | O=C(C1CCN(C2CC(=O)N(c3ccc(Cl)cc3)C2=O)CC1)N1CCOCC1 (configuration not stated) | inconclusive: 8.91 µM [inhibitor, single point] | –
28 | COc1cc2c3c(c1)/C(=C1/SC(NC(C)=O)=NC1=O)C(=O)N3C(C)(C)C=C2C | inconclusive: 3.16 µM [inhibitor, single point] | –
29 | O=C(c1ccco1)N(CCC(c1ccccc1)c1ccco1)Cc1ccco1 (configuration not stated) | inconclusive: 35.5 µM [inhibitor, single point] | –
30 | COc1cccc(N(CC(=O)NCCSCc2ccco2)S(=O)(=O)c2ccccc2)c1 | inactive | –
31 | CCOc1ccc(/C(O)=C2/C(=O)C(=O)N(c3ncccn3)C2c2ccccc2)cc1 (configuration not stated) | inconclusive: 14.1 µM [inhibitor, partial curve, poor fit] | –
32 | O=C(Nc1sc2c(c1C(=O)O)CCC2)c1ccccc1 | – | inconclusive: -79.1% [inhibitor]
33 | COC(=O)CN1C(=S)N(c2ccccc2)C(=O)C1CC(=O)Nc1ccc(Cl)cc1 (configuration not stated) | inconclusive: 22.4 µM [inhibitor, partial curve, poor fit] | –
34 | COc1ccccc1NCCC(=O)OCC(=O)Nc1ccc(Cl)cn1 | inconclusive: 39.8 µM [inhibitor, single point] | –
35 | NC(N)=NCc1cccc(I)c1 | inactive | –
36 | CS(=O)(=O)c1ccc(Cl)c(NC(=O)C2CC(=O)N(Cc3ccco3)C2)c1 (configuration not stated) | inconclusive: 89.1 µM [inhibitor, single point] | –
37 | Cc1ccc(C)c(OCCC(=O)OCC(=O)Nc2ccc(Cl)cn2)c1 | inconclusive: 89.1 µM [inhibitor, single point] | –
38 | C=CCN=C1NN=C(c2ccc3c(c2)OCCO3)CS1 | active: 39.8 µM | –
39 | O=C(NCCCn1ccnc1)c1cn(-c2ccccc2)nc1-c1ccc(F)cc1 | inactive | –
40 | Cc1cc(C)c2c(c1)-c1c(ssc1=S)C(C)(C)N2C(=O)CN1C(=O)c2ccccc2C1=O | inconclusive: 0.631 µM [inhibitor, full curve, poor fit] | –
41 | CC(=O)C1=C(C)NC(SCC(=O)c2ccc(Cl)c(Cl)c2)=C(C#N)C1c1ccco1 (configuration not stated) | inconclusive: 12.6 µM [inhibitor, partial curve, poor fit] | –
42 | CCCC(C)C(=O)Nc1nc(C)c(-c2csc(Nc3cc(Cl)ccc3C)n2)s1 (configuration not stated) | inconclusive: 25.1 µM [inhibitor, single point] | –
